Measured values published in the RNAGym collection of RNA variant scans (doi:10.7554/elife.90254).
The source gives no read counts; variants with many changes may rest on few reads.

B1: LINE1-mini (parent)
chain: GGCAGAGCUCAACACAGCGUGGCAAAGUGGCUGUGGCUAGACUGCC

Variants of: B1
Assay: self-cleavage, relative activity (ratio to wild type); higher = more cleavage; in vitro, sequencing; the parent is a self-cleaving ribozyme

Variant	self-cleavage
GACAGAGCUAAACACAGCGUGGCAAAGUGCCUGUGGCUAGACUGCA	0.05
GAGAGAGCUCAACACAGCGUGGCAAAGUGGCUGUGGCUAGCCUGCC	0.35
GACAGAGAUCAACACUGCGUGGCCAUGUGGCUGUGGCUAGACUACC	0.27
GACAGAGCUCAAUACAGCUUGGCAAAGUGCCUGUGGCUAGACUGCC	0.09
GACAGAGCUCAACAUAGCGUGGCAAAGUGUCUGUGGCUAGACUACU	0.11
GACAGAGCUCAACACAGCGUGGCUAAUUGGCUGUGACUAGACUUAC	0.01
GAGAGAGCUCAACACAGCGUGGCAAAAUGGCUGUGGCUAGACUGCU	0.27
GACAGAGAUCAACACAGCGUGGCAAAGUGGCUUCGGCUAGCCUGUC	0.52
GACAGAGCUAAACACAGCGUGGCGAAGUGGCUGUGGCUAGACUUCG	0.02
GACAGAGCUCAAAACAGCGUGGCCAAGUGGCUGUGGCCAGACUGCC	0.27
GACAGAGCUGAACACAGCGUGGCAAAGUGGCUGUGGUUAGACUUCC	0.02
GACAGAGCUCAACACUGCCUGGCAAAGUGGCUGUUGCUACACUGCC	0.32
GACAGAGCUCAACACAGAGGGGCAAAGUGGCUGUGCCUAGAAUACC	0.03
GACAGAGCUAGACACAAUGUGGCAAAGUCGCUGUGGCUCGACUGCC	0.01
GACAGAGCUGAACACAGCGUGGCAAAGGGGCUGUGGCUAGACUGCC	0.07
GAUAGAGCUCAACACAGCGUGGCAAAGUGGCUAUGGCUAGACUGCC	0.24
GACAGAGCUCAACAGAGCGUGGCAAAGUGGCUGUGGCUCGACUGGC	0.03
GACAGAGCUAAAGACAGCGUGGCAAAGUGGCUUUGGCUAGACUGCC	0.01
GACAGAGGUCAACACAGCGUGGCAAAGUGCCUGUGGCUAGACUGCC	0.06

Variant	self-cleavage
GACAGAGCUUAACACAGCGUGGCAAAGUGGCUGUGGCUAUACUGCC	0.02
GACAGAGCUCAAGACAGCGUGGCAAAGUGGCUGUAGCUAGCCUGCC	0.1
GACAGAGCUCAACAUCGCGUGGCAAAGUGGCUGUGGCUAGACUGUC	0.06
GACAGAGCUAAACACAGCGUGGAAAAGUGGCUGUGGAUAGACUGCC	0.01
GACAGAGCUAAACACAGCGUGGCAAGGUGGGUGUUGCUAGUCUGCC	0.03
GACAGAGCUCAACACAGCGUGGCAAAGUGGCUGUGGCUCAACUGCC	0.15
GACAGAGAUCAACACAGCGUGGAAACGUGGUUGUGGCUAGACUGGC	0.41
GACAGAGCUCAACACAGCGUGGCCAAGUGGUUGUGGCUAGACUGCC	0.19
GACAGAGAUCAGCACAGCGUGGCAAAGUGGCUGUGGCUAGACUGCC	0.05
GACAGAGAUCAACACAGCGUAGCAAAGUGGCUGUGGCUAGACUGAC	0.42
GACAGAGCUUAACACAGCGUGGCCAAGUGACUGUGGCUAGACUGCA	0.05
GACAGAGCUCAAAACUGCGUGGCAAAGUGGCUGUGGCUAGACUGCC	0.18
GACAGAGUUCAACACAGCUUGACAAAGUGGCUGUGGCCAGUCUGCC	0.87
GAAAGUGCUAAACACAACUUGGCAAAGUGGCUGUGGCUAGACUGCC	0.09
GAAAGAGCUCAACACAGCGUGGCAAAGCGGCUGUGUAUAGACUGCC	0.32
GACAGAGCUCAAUACAGCGUGGCAAAGUGGCUGUGUCCAGACUGCC	0.14
GACAGAGCUAAACACAGGGUGGCAAAGUGGCUGUGGCUAGACUGCC	0.03
GACAGAGCUAAACACAGCGUGGCAAAUUGGCUGUGGCUAGACUGCC	0.06
GAUAGAGCUCAACACAUCGUGGCACAGUGGCUCUGGCUAGACUUCC	0.23

Variant	self-cleavage
GACAGAGCUCAACACCGCGUGGCAAAGUGGCUGUGGCUAGUCUGCC	0.1
GACAGAGCUCAAUACAGCGUUGCAAAGUGGCUCUGGCUAGACUGCC	0.04
GAGAGAGCUCAACACAGAGUGGCACAGUGGCUGUGGCGAGACUGCC	0.1
GAAAGAGCUCAACACAGCGUGGUAAGGUGGCUGUGGCUAGACUGCU	0.53
GACAGAGCUAAACACACCGUGGCAAAGUGGCUGUGGCAAGACUGCC	0.04
GACAGAGCUCAACACCGCGUGGCAAAUUGGCUGAGGCUAGACUGCC	0.05
GACAGAGCUCAAAACAUCGUGGCAAAGUGGCUGUGGCUAGACUGCC	0.42
GACAGAGCUGAACACAGCGUGGCAAAGUGGCUGUGGCUAGACUGCU	0.04
GAAAGAGCUUAACACAGCGUGGCAAAGUGGCUGUGGCUAGACUCCC	0.18
GACAGAGCUCAACAGAGCGUGGCAAAGUGGCUGUGGCUACACUGCC	0.03
GACAGAGCUUAACACAGCGUGGCAAAGUGGCUGCGGCUAGACUGCC	0.06
GACAGAGCUCAAAACAGCGUGGCAAAGUGGCUAUGGCUAGACUGCC	0.12
GACAGAGUCCAACACAGCGUGGCAAAAUGGCUGUGGCUAGACUGCC	0.06
GACAGAGUUUAACACAGCGUGGCAAAGUUGCUGUCGCUAGCCUGCC	0.03
GACAGAGCUCAACACUGCGUGGCAAAGUGGCUGUGGCUAGUCUGGC	0.28
GACAGAGCUCAAAACAGCGGGGCAAAGUGUCUGUGGCUAGUCAGCC	0.01
GACAGAGCUCAACACCGCGUGGCAAAGUGGCUGAGGCUACACUGCC	0.26
GACAGAGCUCAACAGAGCGUGGCAAAGUGACUGUGGCUAGACUGUC	0.04
